Screen size: about 45,000 compounds; about 200 (0.44%) were called active. Not shown: some 7% with an inconclusive outcome. Calls come from the whole dose curve; as a rule, active = well fitted activation curve with a large enough effect; inconclusive = small, poorly fitted or top-dose-only effect; inactive = no such curve, though single readings can be large or run the other way. The list shows a part of the results.
Test: qHTS of TDP-43 Inhibitors: NCGC Sytravon Library Screen; note: nearly all actives have a fitted effect of over 55% in size; for growth rescue (activation): 0% is about no effect
Details: yeast TDP-43 toxicity rescue, BacTiter-Glo growth, 24 h; series mostly up to 46.1 µM; growth rescue (activation): at the top concentration
Summary of the method: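 TDP-43-expressing yeast, pregrown in raffinose, seeded at OD600 0.02 in galactose medium with compound for 24 hr at 30 deg C. Growth read by BacTiter-Glo luminescence, so rescue of toxicity appears as activation.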
Potency is the fitted concentration of half-maximal effect.

Row | SMILES | growth rescue (activation) | Potency
1 | COC(=O)COc1ccc(S(=O)(=O)N2CCCCC2)cc1[N+](=O)[O-] | inactive: 9.27% | 
2 | O=C(NC(=S)NCC1CCCO1)c1ccccc1Br (stereo not given) | inactive: -1.89% | 
3 | O=C(COC(=O)c1ccc[n+]([O-])c1)Nc1ccccc1OC(F)F | inactive: -3.76% | 
4 | O=C(Nc1ccc(Cl)cc1C(=O)N1CCCC1)c1cccc([N+](=O)[O-])c1 | inactive: -8.6% | 
5 | CCCOc1ccc(N2C(=O)CC(NNC(=O)c3ccc(COc4ccccc4)o3)C2=O)cc1 (stereo not given) | inactive: 12.8% | 
6 | CCN(CC)CCn1c(N)nc2ccccc21 | inactive: 8.51% | 
7 | Cc1cccc(C)c1NC(=O)CN(C)CC(=O)N1CC(=O)Nc2ccccc21 | inactive: 5.06% | 
8 | Cc1cccc(C)c1NC(=O)Cn1c(=O)n(CCC(=O)NCc2ccc3c(c2)OCO3)c(=O)c2sccc21 | inactive: 12.9% | 
9 | COc1ccc(-c2c(C(F)(F)F)oc3c(CN4CCN(C)CC4)c(O)ccc3c2=O)cc1 | inactive: -18.2% | 
10 | Cc1ccccc1OCc1nnc(SCc2nc3ccccc3c(=O)[nH]2)n1C | inactive: -5.1% | 
11 | COC(=O)[C@@H](NC(=O)NC1CCCCC1C)C(C)C (stereo not given in full) | inactive: 11.2% | 
12 | Cc1ccc([N+](=O)[O-])cc1S(=O)(=O)Nc1ccccn1 | inactive: 4.74% | 
13 | CCOC(=O)Cc1csc(NC(=S)NC(=O)c2ccc([N+](=O)[O-])cc2)n1 | inactive: 6.88% | 
14 | CC(C(=O)Nc1ncc2c(n1)CC(C)(C)CC2=O)N1C(=O)c2ccccc2C1=O (stereo not given) | inactive: -18.7% | 
15 | CC(C)c1ccc(C2NC(=O)c3ccccc3O2)cc1 (stereo not given) | inactive: 16.7% | 
16 | O=C(Nc1ccccn1)[C@@H]1CCC(=O)N1C(=O)OCc1ccccc1 | inactive: -8.75% | 
17 | COCCN(C(=O)CSc1nnc(-c2ccccc2F)n1C)c1c(N)n(Cc2ccccc2)c(=O)[nH]c1=O | inactive: 8.83% | 
18 | CN1CCN(CCCCOc2cccc3ccccc23)CC1 | inactive: 1.25% | 
19 | COCCN(C(=S)Nc1ccc(OC)cc1)C1CCN(C(C)C)CC1 | inactive: -0.637% | 
20 | Cc1ccc(NC(=O)COC(=O)CN2C(=O)C3CCCCC3C2=O)cc1S(=O)(=O)N1CCOCC1 (stereo not given) | inactive: -17.6% | 
21 | Nc1nc(Nc2cccc(F)c2)nc(NCc2ccco2)c1[N+](=O)[O-] | inactive: 20% | 
22 | CN(C)c1ccc(/C=N/NC(=O)c2ccccc2)cc1 | inactive: -5.95% | 
23 | CC(=O)c1ccc(N=C2SCCCN2C(=O)C2CCCC2)cc1 | inactive: 8.23% | 
24 | COc1ccc(N2CC(C(=O)N3CCN(c4ccccc4OC)CC3)CC2=O)cc1 (stereo not given) | inactive: 9.31% | 
25 | CSCCC(C(=O)OCC(=O)c1ccc(C)c(C)c1)N1C(=O)c2ccccc2C1=O (stereo not given) | inactive: -18.8% | 
26 | Cc1nc2nc(C)c(NS(=O)(=O)c3ccc4c(c3)CCCC4)c(=O)n2[nH]1 | inactive: -15.1% | 
27 | CCOC(=O)C(C(C)=O)c1nc(C)nc2c1nnn2Cc1ccccc1Cl (stereo not given) | inactive: -12.6% | 

Row | SMILES | growth rescue (activation) | Potency
28 | Cn1c(NCCc2ccncc2)nc2cc(-c3cccc(C(F)(F)F)c3)sc2c1=O | inactive: 15.8% | 
29 | CCOc1ccc(C(=O)Nc2ccc(N3CCN(C)CC3)cc2)cc1[N+](=O)[O-] | inactive: 6.94% | 
30 | Cc1ccc(S(=O)(=O)N(CC(=O)NCC2CCCO2)Cc2ccc(F)cc2)cc1 (stereo not given) | inactive: 2.7% | 
31 | CC(=O)c1cccc(-c2ccnc3c2CC(C(=O)Nc2cccc(NS(C)(=O)=O)c2)O3)c1 (stereo not given) | inactive: 10.1% | 
32 | O=C(COc1ccccc1F)NCc1nc2ccccc2[nH]1 | inactive: 2.03% | 
33 | N#Cc1nc(Cc2cccc3ccccc23)oc1NCc1ccc2c(c1)OCO2 |  | active: 12.6 µM
34 | Cc1ccc(NC(=S)N2CCN(C(=O)c3ccccc3)CC2)c(C)c1 | inactive: -3.75% | 
35 | S=C(Nc1ccccc1)N1CCN(C(=S)c2ccccc2)CC1 | inactive: 11.8% | 
36 | CC1=NN(c2ccccc2)C(=O)/C1=C\C=C1\N(C)c2ccccc2C1(C)C | inactive: 29.5% | 
37 | CCN1C(=O)/C(=C\c2cccn2-c2ccc([N+](=O)[O-])cc2)N(CC)C1=S | inactive: 17% | 
38 | Cc1c(C(=O)Nc2ccc(C(=O)Nc3ccccc3)cc2)cccc1[N+](=O)[O-] | inactive: -11.8% | 
39 | COc1ccc(-c2nnc(SCC(=O)O)n2Cc2ccccc2)cc1 | inactive: 9.24% | 
40 | O=C(NC(=Nc1nc2ccccc2o1)NC(=O)c1ccccc1)c1ccccc1 | inactive: -8.37% | 
41 | Cc1ccccc1NC(=O)C1CCN(S(=O)(=O)c2cccc3nonc23)CC1 | inactive: 7.91% | 
42 | O=C(c1ccc(F)cc1)C(C(=O)N1CCCCC1)n1ccccc1=O (stereo not given) | inactive: 14% | 
43 | COc1ccc(C)cc1C(=O)CCC(=O)NC1CCCCC1 | inactive: 9.66% | 
44 | CN(C)CCCOc1ccc(-c2cc3nc(NCc4cccnc4)n(C)c(=O)c3s2)cn1 | inactive: 13.8% | 
45 | CCCOc1ccc(/C=N/NC(=O)c2ccc3c(c2)OCO3)c(OCCC)c1 | inactive: -7.92% | 
46 | CCCC(=O)Nc1cccc(NC(=O)c2cccc([N+](=O)[O-])c2C)c1 | inactive: 12.1% | 
47 | O=C(C1CCN(C2CCN(Cc3ccc4cc(F)ccc4n3)CC2)CC1)N1CCCC1 | inactive: -1.16% | 
48 | CC(=O)N1c2ccccc2C(=O)C1N(C)c1ccc(C)cc1 (stereo not given) | inactive: 17.2% | 
49 | COc1ccc(OC)c(S(=O)(=O)N2Cc3ccccc3CC2C(=O)Nc2ccc(Cl)cc2)c1 (stereo not given) | inactive: 25.7% | 
50 | CCN(CC)S(=O)(=O)c1cc(NC(=O)NCCCl)ccc1C | inactive: 32.2% | 
51 | CCCc1ccc(-c2csc(NC(=O)Cc3cccs3)n2)cc1 | inactive: 1.21% | 
52 | CCOc1ccc(S(=O)(=O)NCCC(=O)NC2CCC(C)CC2)cc1 (stereo not given) | inactive: 1.51% | 
53 | C=CC[n+]1c(C)csc1Nc1cccc(Br)c1 | inactive: 21.2% | 
54 | O=C(Cn1cccn1)N1CCCC(N2CCN(c3cccc(C(F)(F)F)c3)CC2)C1 (stereo not given) | inactive: 11.4% | 

Row | SMILES | growth rescue (activation) | Potency
55 | Cc1ccc(Cl)c(NC(=O)CCl)c1Cl | inactive: 7.72% | 
56 | Cc1ccc(NC(=O)C(=O)NCCCN2CC(C(=O)O)CC2=O)cc1 (stereo not given) | inactive: 0.376% | 
57 | COc1cccc(CNC(=O)c2oc3ccc4c(c3c2C)C(=O)CC(C)(C)O4)c1OC | inactive: 26.9% | 
58 | COc1ccc(CCNC(=O)CN2C(=O)NC(Cc3c[nH]c4ccccc34)C2=O)cc1 (stereo not given) | inactive: 4.25% | 
59 | CCOc1ccc(-c2nc(CSc3nnc(N)s3)cs2)cc1 | inactive: 14.5% | 
60 | Oc1c(C=Nc2ccc(Cl)cn2)sc2ccccc12 | inactive: -22.3% | 
61 | COc1cc(/C=C/c2ccc3cccc(O)c3n2)cc(Br)c1OC | inactive: 18% | 
62 | Cc1onc(-c2c(F)cccc2Cl)c1C(=O)OCC(=O)c1c(N)n(C)c(=O)n(C)c1=O | inactive: 13.4% | 
63 | Cc1cc(C)n2cc(CSc3ccccn3)nc2n1 | inactive: -5.85% | 
64 | NS(=O)(=O)c1ccc(CCNC(=O)CCCn2c(SCC(=O)N3CCCC3)nc3ccsc3c2=O)cc1 | inactive: -8.18% | 
65 | CC(=O)Nc1ccc(S(=O)(=O)Nc2nc(-c3ccc(C(C)(C)C)cc3)cs2)cc1 | inactive: 3.13% | 
66 | O=S(=O)(Cc1ccccc1)Nc1ccc(Br)cn1 | inactive: -6.63% | 
67 | CCc1ccc(C(=O)Nc2cc(C)on2)o1 | inactive: 7.12% | 
68 | O=C(Oc1ccc2ccc(=O)oc2c1)C1CCCCC1 | inactive: -3.27% | 
69 | COc1ccccc1/C=N/NC(=O)c1cccc(NC(=O)c2ccccc2C)c1 | inactive: 3.65% | 
70 | O=C(/C=C/Nc1nccs1)C(F)(F)Cl | inactive: -5.05% | 
71 | O=C(NCc1ccccc1)c1cc(C2CCCN(C(=O)C3CCCCC3)C2)on1 (stereo not given) | inactive: 0.857% | 
72 | CC(C)(C)C(=O)Nc1nnc(SCC(=O)NC2CCCCC2)s1 | inactive: -13.4% | 
73 | Cc1c(C(=O)N2CCCc3ccccc32)oc2ccccc12 | inactive: 27% | 
74 | O=C(c1ccccc1)N1CCOC12CCN(c1ncc(C(F)(F)F)cc1Cl)CC2 | inactive: 33% | 
75 | COc1ccc(C2=NN(C(=O)C(O)c3ccccc3)C(O)(C(F)(F)F)C2)cc1 (stereo not given) | inactive: 19.3% | 
76 | COc1cc(CCC(=O)OCC(=O)Nc2c(F)cccc2F)cc(OC)c1OC | inactive: 3.61% | 
77 | Cc1cc(=S)c2ccccc2[nH]1 | inactive: 0.29% | 
78 | COc1ccc(C(N)c2csc(Nc3ccc(C(=O)c4ccccc4)cc3)n2)cc1 (stereo not given) | inactive: 8.51% | 
79 | CCc1cccc2c(C(=O)CN3C(=O)NC4(CCCCC4)C3=O)c[nH]c12 | inactive: 24.6% | 
80 | CCOC(=O)C1C(=O)NC(c2ccccc2)=NC1c1ccc(O)c(OC)c1 (stereo not given) | inactive: 4.47% | 
81 | O=C(Nc1ccc(CN2CCCCC2)cc1)Nc1ccc(Br)cc1Cl | inactive: 1.24% | 

Row | SMILES | growth rescue (activation) | Potency
82 | O=C(NCc1ccco1)C(c1ccncc1)N(C(=O)Cc1cccs1)c1ccccc1 (stereo not given) | inactive: -0.121% | 
83 | COc1ccc(NC(=O)CCNS(=O)(=O)c2cccc3nonc23)cc1Cl | inactive: -3.43% | 
84 | Cc1c(NC(=O)COC(=O)c2cc(-c3cccc4ccccc34)nc3ccccc23)c(=O)n(-c2ccccc2)n1C | inactive: 20% | 
85 | COc1ccc(C2Nc3ccccc3C(=O)N2NS(=O)(=O)c2ccccc2)cc1 (stereo not given) | inactive: -15% | 
86 | CC1CCN(S(=O)(=O)N2CCC(C(=O)O)CC2)CC1 | inactive: -0.743% | 
87 | O=C(/C=C/c1nc2ccccc2s1)N1CCCCCC1 | inactive: -8.78% | 
88 | O=C(CSc1nc(C2CC2)nc2c1cnn2-c1ccccc1)Nc1c[nH]c(=O)[nH]c1=O | inactive: -43.6% | 
89 | CN(C)c1ncc(S(=O)(=O)c2ccccc2)c(N)n1 | inactive: 1.83% | 
90 | COc1cc(/C=C2\SC(=S)N(NC(=O)c3ccc(O)c(OC)c3)C2=O)ccc1O | inactive: -17.7% | 
91 | CC(=O)Nc1ccc(C(C#N)c2ccccc2)cc1 (stereo not given) | inactive: -2.22% | 
92 | Cc1ccccc1NC(=O)C(=O)NC(C)CCc1ccccc1 (stereo not given) | inactive: 8.58% | 
93 | CCCN(CC(=O)Nc1ccc(Cl)cc1Cl)C(=O)/C=C/c1cc(OC)ccc1OC | inactive: -12.5% | 
94 | O=C(OC(C(=O)Nc1ccc(Cl)cc1C(F)(F)F)c1ccccc1)c1c(Cl)cccc1Cl (stereo not given) | inactive: 1.88% | 
95 | O=C(Oc1ccc2c(-c3ccccc3)cc(=O)oc2c1)c1cccs1 | inactive: 1.17% | 
96 | COc1cc(/C=N/NC(=O)c2cccnc2)ccc1OCC(=O)Nc1c(C)cc(C)cc1C | inactive: -4.51% | 
97 | Cc1ccc(C)c(C(=O)COC(=O)CN2C(=O)C3C4CCC(C4)C3C2=O)c1 (stereo not given) | inactive: 21.6% | 
98 | Cc1ccc2nc(-c3ccc(O)c(O)c3)cn2c1 | inactive: -11.6% | 
99 | CC1CCCN(S(=O)(=O)c2ccc(N(C(=O)c3cnccn3)C(C(=O)NC3CCCCC3)c3cccs3)cc2)C1 (stereo not given) | inactive: -1.93% | 
100 | O=C1c2ccccc2C(=O)N1Cc1cnc(N2CCN(c3ccccc3)CC2)s1 | inactive: 7.31% | 
101 | CCOC(=O)C1(Cc2ccccc2)CCN(Cc2cccc3nccnc23)CC1 | inactive: -1.33% | 
102 | CC(=O)Oc1ccc2c(=O)c(Oc3ccccc3[N+](=O)[O-])coc2c1 | inactive: -11.8% | 
103 | Cc1ccc2nc(NCc3ccccc3)c(C=NCc3ccccc3)c(=O)n2c1 | inactive: 16.9% | 
104 | C=CCc1c(C)c(C#N)c2nc3ccccc3n2c1N1CCCCC1 | inactive: 15.1% | 
105 | CCOc1ccc(S(=O)(=O)NCc2ccc(Cl)cc2)c2cccnc12 | inactive: 11.2% | 

From PubChem BioAssay AID1347073 (National Center for Advancing Translational Sciences (NCATS), 2019)
